According to PubChem BioAssay AID1963576 (National Center for Advancing Translational Sciences (NCATS), 2024):
Screen size: about 46,000 compounds; about 60 (0.1%) were called active. Roughly 3% stayed inconclusive and do not appear here. Calls come from the whole dose curve; as a rule, active = well fitted inhibition curve with a large enough effect; inconclusive = small, poorly fitted or top-dose-only effect; inactive = no such curve, though single readings can be large or run the other way. Some of the results follow.

Experiment: Primary qHTS assay for Inhibitors of ovarian cancer metastasis using an organotypic tumor microenvironment (TME) model.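 For activity change, negative = inhibition: plate controls were DMSO wells for no effect and tomatine positive control wells for full effect.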 Note: nearly all actives have a fitted effect of over 65% in size.
Conditions: SKOV3ip1-GFP adhesion/invasion on 3D omental model, fluorescence; series mostly up to 45.8 µM; activity change, negative = inhibition: at the top concentration
Summary of the method: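 A 3D layer of primary human omental fibroblasts, mesothelial cells, fibronectin and collagen I, grown 48 hr, received SKOV3ip1-GFP cells in serum-free medium plus compounds at 0.36-46 umol/L. After 2 hr RT and 16 hr 37 C, fixed adherent GFP cells were counted; normalized to DMSO and tomatine.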

Activity change, negative = inhibition, inactive:
COc1ccc(N2CCN(C(=O)CCS(=O)(=O)c3cc(Br)cc4c3N(C(=O)C3CC3)CC4)CC2)cc1 -6.76%
COc1ccc(NC(=O)Nc2nnc(N3CCCCCC3)s2)c(OC)c1 3.4%
COc1ccc(NC(=O)CN2C(=O)COc3ccc(S(=O)(=O)N4CCOCC4)cc32)cc1Cl -3.58%
Cc1ccc(NC(=O)CN2C=NS(=O)(=O)c3ccccc32)c(C)c1 -1.24%
O=C(Nc1cc2c(cc1C(=O)c1ccc(Br)cc1)OCCO2)c1ccc(Cl)cc1 -0.146%
COc1cccc(-n2c(=O)c3cc(OC)c(OC)cc3n(CC(=O)Nc3ccccc3)c2=O)c1 6.58%
Cc1ccc(N2CC(NC(=O)c3ccco3)CC2=O)cc1 (stereo unspecified) -9.43%
CCOc1ccc(NC(=O)CSC2=Nc3ccccc3C3=NC(CC(=O)NCc4ccccc4OC)C(=O)N23)cc1 (stereo unspecified) 4.74%
O=C(c1ccc2c(c1)N(Cc1ccc(F)cc1)C(=O)c1ccccc1S2(=O)=O)N1CCCCCC1 42.8%
COc1ccc(CCn2c(=O)c3ccccc3n(CC(=O)Nc3cccc(C)c3)c2=O)cc1OC 1.68%
CC(=O)Nc1ccccc1-c1nc2ccccc2n(CC(=O)Nc2ccc(C)c(Cl)c2)c1=O -3.19%
Cc1ccc(C)c(S(=O)(=O)c2cn(C)c3cc(F)c(F)cc3c2=O)c1 4.12%
Cc1oc(-c2ccccc2F)nc1CS(=O)(=O)CC(=O)N1CCN(c2ccc(Cl)cc2)CC1 2.12%
O=S(=O)(c1ccc(Br)cc1)c1nc(-c2cccs2)oc1SCc1ccc(F)cc1 0.238%
CCn1c(COc2cccc(C)c2)nc2ccccc21 -2.21%
Cc1ccc(NC(=O)CSc2nc3c(c(=O)[nH]2)CCC3)cc1Cl -12%
CCN(C(=O)CCS(=O)(=O)c1ccc2c(c1)oc(=O)n2C)c1ccc(OC)cc1 1.91%
Cc1ccccc1CN1C(=O)c2ccccc2S(=O)c2ccc(C(=O)NCc3ccco3)cc21 (stereo unspecified) 8.13%
Cc1[nH]c2ccc(C(=O)Nc3ccc(F)cc3)cc2c1C -9.18%
CC(C)CCNC(=O)CCC(=O)N1Cc2ccccc2Oc2ncccc21 1.79%

outcome, inactive:
O=C(c1ccc2c(c1)N(Cc1ccc(Cl)cc1)C(=O)c1ccccc1S2(=O)=O)N1CCC(Cc2ccccc2)CC1
Cc1ccc(S(=O)Cc2ccc(C(=O)NC3CCCCCC3)o2)cc1 (stereo unspecified)
CCc1cccc(NC(=O)c2c(N3CCCC3=O)c3cc(C)ccc3n2C)c1
CCS(=O)(=O)N1CCC2(CC1)OC(=O)C(C)=C2C(=O)NCc1cccc(Cl)c1
CCn1c(SCC(=O)Nc2ccccc2)nc2c([nH]c3ccccc32)c1=O
Cc1ccccc1NS(=O)(=O)c1ccc2c(c1)NC(=O)CCS2
